Laboratory results: PubChem BioAssay AID1347073 (National Center for Advancing Translational Sciences (NCATS), 2019)
Among all 45,000 compounds or so, about 200 (0.44%) were called active. Another 7% or so got no clear call; they are omitted. The call rests on the fitted dose curve; in most records, active means well fitted activation curve with a large enough effect; inconclusive means small, poorly fitted or top-dose-only effect; inactive means no such curve, though single readings can be large or run the other way. This is one part of the list.

Experiment: qHTS of TDP-43 Inhibitors: NCGC Sytravon Library Screen; further: 0% is about no effect; nearly all actives have a fitted effect of over 55% in size
Conditions: yeast TDP-43 toxicity rescue, BacTiter-Glo growth, 24 h; series mostly up to 46.1 µM; growth rescue (activation): at the top concentration
Outline: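 TDP-43-expressing yeast, pregrown in raffinose, seeded at OD600 0.02 in galactose medium with compound for 24 hr at 30 deg C. Growth read by BacTiter-Glo luminescence, so rescue of toxicity appears as activation.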

Row | SMILES | growth rescue (activation)
1 | CC1(C(=O)NC2CCc3ccccc32)CCN1CCc1ccccc1 (centres undefined) | inactive: -5.76%
2 | CCOC(=O)C(Cc1ccccc1)C(=O)Nc1cccc(C)c1 (centres undefined) | inactive: -9.1%
3 | O=C(CNC(=O)c1ccco1)OCc1ccccc1F | inactive: -1.05%
4 | N#Cc1nc(COc2ccc(Br)cc2)oc1NCCCn1ccnc1 | inactive: 14%
5 | Cc1cc(C)cc(OCC(=O)N(Cc2ccc(C)o2)C2CCS(=O)(=O)C2)c1 (centres undefined) | inactive: 3.3%
6 | O=C(O)CNC(=O)/C(=C\c1ccc2c(c1)OCO2)NC(=O)c1ccc(Br)cc1 | inactive: -2.28%
7 | O=c1cc(-c2ccc([N+](=O)[O-])cc2)c2cc3c(cc2[nH]1)OCCO3 | inactive: -18.3%
8 | CCN(CC)S(=O)(=O)c1cccc(NC(=O)CCSc2ccc(Cl)cc2)c1 | inactive: 15.7%
9 | CC1(C(=O)NS(=O)(=O)c2ccc(C#N)cc2)CCN1C(=O)CCC1CCCC1 (centres undefined) | inactive: 2.94%
10 | N#Cc1c(SC(C(=O)O)c2ccccc2)nc2c(c1-c1cccs1)CCCC2 (centres undefined) | inactive: 9.12%
11 | Cc1ccc(S(=O)(=O)Nc2ccc(Cl)cn2)cc1C | inactive: 3.6%
12 | CCCNC(=O)COC(=O)c1cc2c(=O)n3ccccc3nc2s1 | inactive: 13.7%
13 | COc1ccc([N+](=O)[O-])cc1NC(=O)C(C)Sc1nc(C)c(C)c(C)n1 (centres undefined) | inactive: 5.6%
14 | CC(OC(=O)c1ccc(Cl)cc1O)C(=O)NCCC1=CCCCC1 (centres undefined) | inactive: -10.8%
15 | COc1cc(/C=N/NC(=O)c2cc[n+]([O-])cc2)ccc1O | inactive: -6.25%
16 | CC(OC(=O)c1cccs1)C(=O)NC1CC1 (centres undefined) | inactive: 5.95%
17 | CC(=O)Oc1ccc(C(=O)Nc2cccc(NC(=O)c3ccco3)c2)cc1 | inactive: 14.1%
18 | O=C(N/N=C/c1ccccc1[N+](=O)[O-])c1ccc(CN2CCOCC2)cc1 | inactive: 8.93%
19 | COc1cc(/C=C2\CCC(C3CCCC3)C2=O)cc(OC)c1OC (centres undefined) | inactive: 3.36%
20 | CCc1ccc(NC(=O)C/C(C)=N/NC(=O)COc2ccccc2C)cc1 | inactive: 4.99%
21 | CCCC(C(=O)NC(C)(C)C)N(CCN1CCOCC1)C(=O)CNS(=O)(=O)c1ccccc1 (centres undefined) | inactive: 12.6%
22 | CC(=O)OCC(=O)N1N=C(c2ccc3ccccc3c2)CC1c1ccccc1 (centres undefined) | inactive: 12.8%
23 | CCN(CC)S(=O)(=O)c1cccc(NC(=O)/C=C/c2cccc([N+](=O)[O-])c2)c1 | inactive: 5.03%
24 | CC(=O)Nc1ccc(S(=O)(=O)N2CCN(S(=O)(=O)N3CCOCC3)CC2)cc1 | inactive: 6.31%
25 | CC1=C(C(=O)OC2CCCC2)C(c2coc3ccc(C)cc3c2=O)C2=C(CCCC2=O)N1 (centres undefined) | inactive: -2.82%
26 | CCN(CC)S(=O)(=O)c1ccc(N2CCOCC2)c(NC(=O)c2ccccc2F)c1 | inactive: 8.69%
27 | CCn1c2ccccc2c2cc(CN3CCN(Cc4ccccc4C)CC3)ccc21 | inactive: 11.4%
28 | O=C(OCc1cncs1)c1cccs1 | inactive: 0.489%
29 | CC1CCN(CCCCOc2ccccc2F)CC1 | inactive: -8.12%
